From PubChem BioAssay AID588342 (National Center for Advancing Translational Sciences (NCATS), 2011)
Out of some 360,000 compounds screened, about 25,000 (6.9%) were called active. This list was built around the results that the source calls inconclusive (neither active nor inactive); the mix of calls is not that of the screen. The call rests on the fitted dose curve; in most records, active means well fitted inhibition curve with a large enough effect; inconclusive means small, poorly fitted or top-dose-only effect; inactive means flat fitted curve, though single readings scatter. Potencies of inconclusive entries are doubtful fits and often do not repeat.

Molecular target: Luciferin 4-monooxygenase (Photinus pyralis) (UniProt P08659)
Chain of UniProt P08659 (P08659 whole entry, looked up): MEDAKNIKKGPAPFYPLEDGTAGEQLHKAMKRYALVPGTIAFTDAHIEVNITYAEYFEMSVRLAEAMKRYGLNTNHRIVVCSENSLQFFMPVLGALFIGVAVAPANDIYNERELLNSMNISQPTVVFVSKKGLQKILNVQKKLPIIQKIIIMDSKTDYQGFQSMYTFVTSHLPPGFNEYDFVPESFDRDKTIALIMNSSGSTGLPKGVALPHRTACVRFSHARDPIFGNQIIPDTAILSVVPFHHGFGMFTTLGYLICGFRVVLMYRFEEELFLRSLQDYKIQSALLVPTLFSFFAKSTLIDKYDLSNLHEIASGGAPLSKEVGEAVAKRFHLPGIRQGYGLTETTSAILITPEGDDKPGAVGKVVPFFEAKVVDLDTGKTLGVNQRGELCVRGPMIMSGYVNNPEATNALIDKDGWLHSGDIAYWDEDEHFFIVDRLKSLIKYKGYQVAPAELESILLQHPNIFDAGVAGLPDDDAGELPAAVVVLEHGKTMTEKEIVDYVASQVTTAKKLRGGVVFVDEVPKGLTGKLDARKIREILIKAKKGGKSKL
Test: qHTS profiling assay for firefly luciferase inhibitor/activator using purifed enzyme and Km concentrations of substrates (counterscreen for miR-21 project); further: nearly all actives have a fitted effect of over 55% in size;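 on activity change, negative = inhibition: plate controls were vehicle for no effect and reference inhibitor for full effect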
Conditions: purified FLuc, luminescence inhibition; activity change, negative = inhibition: at 57.5 µM (top of the series)
In short: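 Purified P. pyralis luciferase (10nM final) with 10uM D-luciferin and 10uM ATP (Km levels) in 50mM Tris acetate pH 7.5, 10mM Mg acetate, 0.01% Tween-20, 0.05% BSA; qHTS 6-point titration, ~60 µM downward; luminescence read.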
Potency means the concentration at half of the fitted maximal effect; tags describe the fitted curve by direction and shape.

SMILES	activity change, negative = inhibition	Potency
CCCCNc1cc(C)nc(NCc2ccccc2)n1	inactive: -2.01%	
Cc1c(C(=O)OC(C)C)sc(NC(=O)c2cccnc2)c1C#N		active: 6.75 µM
COc1ccc(/C=N/N2CCOCC2)cc1COc1ccc(Cl)cc1		inconclusive: 23.9 µM [inhibitor, partial curve, poor fit]
O=C(CN1C(=O)S/C(=C\C=C\c2ccccc2)C1=O)N1CCCCC1		inconclusive: 6.01 µM [inhibitor, full curve, poor fit]
COC(=O)c1ccc(NC(=O)CCc2c(C)nn(-c3ccc(N4CCCCC4)nn3)c2C)cc1		active: 9.53 µM
O=C(N/N=C/c1ccccc1O)c1cc(=O)[nH]c2ccccc12		inconclusive: 8.49 µM [inhibitor, partial curve, poor fit]
Cc1ccccc1-c1nnn(Cc2cccc(S(=O)(=O)N3CCOCC3)c2)n1		inconclusive: 23.9 µM [inhibitor, partial curve, poor fit]
COC(=O)c1c(-c2cccs2)csc1NC(=O)c1ccc(C(C)C)cc1		inconclusive: 10.7 µM [inhibitor, partial curve]
COc1cc(/C=N/NC(=O)CCc2ccccc2)ccc1O		inconclusive: 37.9 µM [inhibitor, partial curve, poor fit]
COc1ccc(C2CC(c3ccccc3)=NN2c2ccc(C(N)=O)cc2)cc1 (configuration not stated)		inconclusive: 23.9 µM [inhibitor, partial curve]
Clc1ccc(/C=N/NC2=Nc3cccc4cccc2c34)cc1		active: 1.69 µM
CC1=CC(c2ccccc2)=Nc2ccc(C)cc2N1		active: 6.75 µM
Cc1ccccc1NC(=O)c1ccc(N(Cc2ccccc2)S(C)(=O)=O)cc1	inactive: -0.776%	
c1ccc2c(CSCc3nc4ccccc4[nH]3)cccc2c1		active: 10.7 µM
O=C1CCC(c2ccc3c(c2)CCC3)=NN1		inconclusive: 37.9 µM [inhibitor, single point]
COc1cc(OC)cc(C(=O)Nc2ccc(Cn3ccnc3)cc2)c1		inconclusive: 21.3 µM [inhibitor, single point]
Cc1ccc(/C=C2\SC(=S)N(CCC(=O)NNC(=O)c3ccncc3)C2=O)cc1		inconclusive: 23.9 µM [inhibitor, partial curve]
Cn1c(SCc2c(F)cccc2Cl)nnc1-c1cccs1		active: 15.1 µM
O=C(NC(=S)NNC(=O)c1ccccc1F)c1cccnc1	inactive: -16.1%	
Cc1cc(C)cc(N2C(=O)C3C4C=CC(C4)C3C2=O)c1 (configuration not stated)	inactive: -1.64% [at 2.3 µM]	
O=C(/C=C/c1ccc(Cl)cc1)Nc1ccc(N2CCCCC2)cc1	inactive: -3.21%	
O=C(NNC(=S)NC1CCCCC1)c1ccc(Cl)s1		inconclusive: 15.1 µM [inhibitor, partial curve, poor fit]
O=C(NNC(=O)c1cc(Cl)ccc1O)c1ccc(NS(=O)(=O)c2cccs2)cc1		inconclusive: 8.49 µM [inhibitor, partial curve, poor fit]
O=C(Nc1ccc(C(F)(F)F)cc1)c1csc(-c2ccncc2)n1		inconclusive: 30.1 µM [inhibitor, single point]

SMILES	activity change, negative = inhibition	Potency
Cc1ccc(-c2nnc3sc(C4COc5ccccc5O4)nn23)cc1 (configuration not stated)		inconclusive: 21.3 µM [inhibitor, single point]
COc1cccc(C(=O)Nc2ccccc2)c1		active: 23.9 µM
Cc1cc(C)nc(NC(=O)c2cc(-c3ccc4c(c3)OCO4)nc3ccccc23)c1		inconclusive: 23.9 µM [inhibitor, single point]
CC(=O)Nc1cccc(-c2csc(NCc3ccco3)n2)c1		active: 16.9 µM
Cc1ccc(NC(=O)CCS(=O)(=O)c2ccc3c(c2)oc(=O)n3C)c(Br)c1	inactive: 4.51%	
Cc1cc(C(=O)N/N=C/c2ccc[nH]2)n[nH]1		inconclusive: 21.3 µM [inhibitor, partial curve, poor fit]
S=c1[nH]c(-c2ccccc2)cn1/N=C/c1ccccc1Br		active: 13.5 µM
O=c1[nH]c(SCc2c(F)cccc2Cl)nc2c1CCCC2	inactive: -3.98%	
C=CCn1cc(CN2CCC(C(=O)Nc3cccc(-c4cccc(Cl)c4)c3)CC2)c(C)n1	inactive: -2.5%	
CC(=O)c1cccc(NS(=O)(=O)c2cccc(S(=O)(=O)c3ccc(Br)cc3)c2)c1		inconclusive: 9.53 µM [inhibitor, partial curve]
Cc1c(CN2CCC(Oc3ccc(C(=O)N4CCCCC4)cc3)CC2)cnn1C	inactive: 0.0754%	
O=C(CSc1ccc(-c2cccs2)nn1)N1CCCCCC1		inconclusive: 16.9 µM [inhibitor, partial curve]
O=C(NCc1nc2ccccc2[nH]1)c1ccccc1F		inconclusive: 37.9 µM [inhibitor, partial curve, poor fit]
O=C(Nc1ccccc1F)c1ccc(COc2ccc(Cl)cc2Cl)o1		inconclusive: 33.8 µM [inhibitor, partial curve, poor fit]
CC(C)(C)C1CCC(=NNc2ncc(C(F)(F)F)cc2Cl)CC1 (configuration not stated)		inconclusive: 26.9 µM [inhibitor, single point]
C/C(=N/NC(=O)c1ccc(Cl)s1)c1cccnc1	inactive: 0.34%	
O=C(CSc1nc2ncc(Cl)cc2[nH]1)NCC(=O)Nc1ccc(F)c(F)c1F	inactive: 5.74%	
COc1cc(-c2cc(C(=O)Nc3ccc(N4CCOCC4)cc3)c3ccccc3n2)cc(OC)c1OC		inconclusive: 15.1 µM [inhibitor, partial curve]
COc1cc(OC)cc(-c2c(-c3ccsc3)c3cc(Br)ccc3n2C)c1	inactive: 0.345%	
CCN(CC)c1ncnc2c1[nH]c1ccccc12	inactive: -18.8%	
CC(OC(=O)c1cc(=O)c2cc(Cl)ccc2o1)C(=O)N1CCCC1 (configuration not stated)	inactive: -2.25%	
COc1c(C(=O)Nc2ccc(CN3CCOCC3)cc2)cc2ccccc2c1Br		inconclusive: 21.3 µM [inhibitor, partial curve, poor fit]
Nc1cc(Cl)ccc1Oc1ccc(Cl)cc1		inconclusive: 26.9 µM [inhibitor, partial curve, poor fit]
O=C1C2C3C=CC(CC3)C2C(=O)N1/N=C/c1ccco1 (configuration not stated)		inconclusive: 30.1 µM [inhibitor, single point]

SMILES	activity change, negative = inhibition	Potency
COc1ccc(C(=O)Nc2nnc(CC(=O)N/N=C/c3ccc(O)cc3O)s2)cc1		inconclusive: 10.7 µM [inhibitor, partial curve]
CCOC(=O)C1CCN(C(=O)Nc2cccc(Cl)c2)CC1		inconclusive: 23.9 µM [inhibitor, partial curve, poor fit]
COCCn1c(C)cc(C(=O)COC(=O)c2ccc(Cl)c(S(N)(=O)=O)c2)c1C		active: 0.757 µM
COc1ccc(NC(=O)CCCC2CCCCC2)c(OC)c1		inconclusive: 23.9 µM [inhibitor, partial curve]
CN(C)c1ccc(NC(=S)NCC2CCCO2)cc1 (configuration not stated)		inconclusive: 23.9 µM [inhibitor, single point]
COc1ccc(-c2nc(SCC(=O)NCc3ccccc3Cl)n[nH]2)cc1		inconclusive: 26.9 µM [inhibitor, partial curve, poor fit]
COc1ccc2nc(N/C(N)=N/S(C)(=O)=O)nc(C)c2c1		active: 15.1 µM
O=C(O)c1cccc(-n2cc(-c3cccc(C(F)(F)F)c3)cn2)c1		active: 1.2 µM
CCNc1nc(N)nc(-c2cc(Cl)ccc2O)n1		active: 1.69 µM
CCn1c2ccccc2c2nc3ccccc3nc21		inconclusive: 19 µM [inhibitor, single point]
CCNc1nc(NCC)nc(SCCOC(=O)Nc2ccccc2)n1		inconclusive: 15.1 µM [inhibitor, partial curve, poor fit]
O=C(/C=C/c1cc(Br)ccc1O)c1ccco1		inconclusive: 37.9 µM [inhibitor, single point]
Cc1ccc(-c2nnc3c4ccccc4c(C)nn23)cc1NC(=O)c1cccc(Br)c1	inactive: 3.27%	
CCCCN(CC)C(=O)CCCn1c(=O)c2cccn2c2ccccc21		inconclusive: 37.9 µM [inhibitor, partial curve, poor fit]
O=C(Nc1nnc(-c2ccccc2)o1)c1cccc(N2C(=O)CCC2=O)c1		inconclusive: 21.3 µM [inhibitor, partial curve]
O=C(N/N=C1\CCCc2ccccc21)c1cccc(Br)c1		inconclusive: 21.3 µM [inhibitor, partial curve, poor fit]
c1ccc(-c2cc3c(N4CCCCC4)ncnc3s2)cc1		inconclusive: 21.3 µM [inhibitor, partial curve, poor fit]
O=C(COc1cccc2ccccc12)Nc1cc(Cl)ccc1C(=O)O		inconclusive: 37.9 µM [inhibitor, partial curve, poor fit]
CCCCOc1cccc(C(=O)NC(=S)Nc2ccc(Cl)c(C(=O)O)c2)c1		inconclusive: 26.9 µM [inhibitor, single point]
COC(=O)c1cc(NC(=O)c2ccco2)ccc1N1CCOCC1	inactive: -2.45%	
COC(=O)c1ccc(Sc2ccc(F)cc2)c(N)c1		active: 21.3 µM
COc1ccccc1CNC(=O)c1ccccc1SCC(=O)NCc1ccco1		inconclusive: 30.1 µM [inhibitor, partial curve, poor fit]
COc1ccccc1Oc1ccc2c(c1)C(=O)N(c1cccc(O)c1)C2=O		inconclusive: 23.9 µM [inhibitor, single point]
Cc1ccc(CNC(=O)CN2C(=O)CC(c3ccc(C)c(C)c3)=Nc3ccccc32)cc1		inconclusive: 12 µM [inhibitor, partial curve]
